Laboratory results as given in PubChem BioAssay AID463173 (ICCB-Longwood Screening Facility, Harvard Medical School, 2010).
In all, about 52,000 compounds went through this assay and about 4,300 (8.3%) were called active. Cut-off read from the data, not from the text of the source: active = survival mostly below about 52% (no sharp cut-off); inactive = mostly above about 56%. The list shows a part of the results.

test system: DeltatarO mutant; assay: S. aureus survival, RN4220 and DeltatarO strains – OD600, teichoic acid synthesis inhibitors, primary screen (AID 463173); details: S. aureus RN4220 wild type/DeltatarO growth, OD600, 18 h, hits give low values, screened at 18.75 µg/mL (by protocol)

Structure (SMILES) | survival
CC(=O)N(Cc1ccccc1)Cc1cc2cc(C)ccc2n2nnnc12 | inactive: 77%
CCN(CC)S(=O)(=O)c1ccc2c(c1)N(CC(=O)NCCCN1CCN(c3cc(C)ccc3C)CC1)C(=O)CO2 | inactive: 112%
O=C(Cn1c(=O)n(-c2ccc(F)c(Cl)c2)c(=O)c2sc3ccccc3c21)NC1CCCCC1 | inactive: 102%
CC(C)CNS(=O)(=O)c1ccc(S(=O)(=O)N2CCCN(Cc3ccccc3)C2)cc1 | inactive: 59%
Cc1ccc(Cl)cc1Nc1nn2c(=O)c3ccc(C(=O)NC4CCC(C)CC4)cc3nc2s1 (centres undefined) | inactive: 100%
CN1CCN(C2(CNC(=O)COc3ccc(C(C)(C)C)cc3)CCCCC2)CC1 | inactive: 77%
CCc1cccc(C)c1NC(=O)C(NS(=O)(=O)c1ccc2c(c1)CCC(=O)N2)c1ccccc1 (centres undefined) | inactive: 89%
CCN1CCc2c(sc(-n3cccc3)c2C(CCC(C)C)NC(=O)NCCC(=O)OC)C1 (centres undefined) | inactive: 101%
CCCn1c2ccccc2c2cnn(CC(=O)NCCCOC(C)C)c(=O)c21 | active: -5%
Cc1ccc(C)c(N2CCN(C(c3ccccc3)c3nnc(-c4ccccc4)o3)CC2)c1 (centres undefined) | active: -5%
COc1ccc(CN(Cc2ccco2)S(=O)(=O)c2ccc(S(=O)(=O)N3CCCC3)cc2)cc1 | inactive: 78%
Cc1ccc(NS(=O)(=O)c2c(C)nc3sc(C)c(C)n3c2=O)cc1F | inactive: 60%
CCOC(=O)c1cc(-c2ccccc2)n(-c2cccc(C(=O)NC(C)(C)C)c2)c1C | inactive: 112%
CCOC(=O)c1cnc2ccc(OCC)cc2c1NCCc1ccc(OC)c(OC)c1 | inactive: 116%
CCOc1ccc(S(=O)(=O)NCc2cccn2Cc2cccc(C)c2)cc1 | inactive: 84%
CC(C)COc1ccc(C(=O)N(Cc2cccc(F)c2)C2CCS(=O)(=O)C2)cc1 (centres undefined) | inactive: 77%
CCCn1c(=N)c(C(=O)NC2CCCCC2)cc2c(=O)n3cc(C)ccc3nc21 | inactive: 51%
O=C(Cn1c(=O)n(Cc2ccc(F)cc2)c(=O)c2sc3ccccc3c21)Nc1ccc(F)cc1F | inactive: 68%
COC(=O)CCNC(=O)N1CCN(c2nnc(C)c3c(C)n(-c4ccccc4)nc23)CC1 | inactive: 95%
COc1cc(C(=O)NCc2nc(-c3ccc(Cl)cc3)no2)cc(OC)c1OC | inactive: 59%
COc1cccc(CNC(=O)Cn2cccc2C(=O)c2ccccc2)c1 | inactive: 87%
COc1ccc(C(=O)N2CCN(c3nc4c(OC)cccc4s3)CC2)cc1OC | inactive: 72%
COc1ccc(OC)c(-n2c(-c3cc(-c4ccco4)[nH]n3)n[nH]c2=S)c1 | inactive: 70%

Structure (SMILES) | survival
O=C(NCCCN1CCOCC1)C1CC(c2ccccc2O)=NO1 (centres undefined) | inactive: 97%
O=C(CSc1nc2ccsc2c(=O)n1-c1ccc(Br)cc1)NCc1ccc(Cl)cc1 | inactive: 74%
COc1cccc(-c2nc(CS(=O)(=O)CC(=O)Nc3ccc(C)c(Cl)c3)c(C)o2)c1 | inactive: 98%
COc1ccc(CCNC(=O)Cc2ccc(NC(=O)N3CCSc4ncccc43)cc2)cc1OC | inactive: 73%
Cc1cccc(NC(=O)c2cc3c([nH]c2=O)CC(c2ccccc2)CC3=O)c1 (centres undefined) | active: 20%
Cc1ccc(N2CC(NC(=O)C3CCCCC3)CC2=O)cc1 (centres undefined) | inactive: 100%
O=C(NCc1ccco1)c1c2c(nc3ccccc13)-c1ccccc1CC2 | inactive: 69%
COc1ccc(NC(=O)CSCc2cc(=O)c3cc(Cl)ccc3[nH]2)cc1 | inactive: 67%
Cc1cccc(C(=O)Nc2cc(-c3ccccc3F)nn2-c2ccccc2)c1 | inactive: 72%
CCOc1ccc(C2CC(=O)Nc3c2c(=O)[nH]c2ncnn32)cc1 (centres undefined) | inactive: 66%
CCn1c(CNC(=O)c2ccc(OC)cc2)nnc1SCC(=O)Nc1ccc(F)cc1 | inactive: 130%
CCc1ccc(C(=O)c2cn(CC(=O)Nc3ccc(F)cc3)c3ccc(F)cc3c2=O)cc1 | inactive: 58%
COc1cc(NS(=O)(=O)c2cc3[nH]c(=O)[nH]c3cc2C)cc(OC)c1OC | active: 37%
CCCC1(C)NC(=O)c2ccccc2O1 (centres undefined) | inactive: 75%
CCOc1ccc(NC(=O)C2CC(=O)NC(N3CCCCC3)=N2)cc1 (centres undefined) | inactive: 81%
CCc1ccc(CNC(=O)C2COc3ccccc3C2)cc1 (centres undefined) | inactive: 81%
Cc1ccc2c(c1)c(=O)c1ccccc1n2CCCC(=O)Nc1ccc(C)c(C)c1 | active: 43%
Cc1ccc(COC(=O)c2[nH]c3c(c2C)C(=O)CC(c2ccc(Cl)cc2)C3)cc1 (centres undefined) | inactive: 102%
CC(C)OC(=O)c1ccc(NC(=O)CSc2nc(-c3cccs3)cc(C(F)(F)F)n2)cc1 | inactive: 48%
CC(C)CC(=O)n1nc(-c2ccco2)nc1NCc1ccc(Cl)cc1 | inactive: 77%
CC1CCCCN1C(=O)CSc1nnc(CNc2ccc(Cl)cc2)o1 (centres undefined) | inactive: 91%
O=C1CCC(=O)N1CN1CCN(c2ccccc2)CC1 | inactive: 104%
Cc1ccc2c(c1)-c1c(cnc3cc(-c4ccc(Cl)cc4)nn13)CO2 | inactive: 52%

Structure (SMILES) | survival
Cc1ccc(CCNC(=O)c2sc3nc4n(c(=O)c3c2C)CCCC4)cc1 | inactive: 62%
Cc1ccc2onc(CNC(=O)N3CCN(c4cc(Cl)ccc4C)CC3)c2c1 | inactive: 48%
CC(CNC(=O)c1cc2cc(S(=O)(=O)N3CCCCC3)ccc2n1C)c1ccccc1 (centres undefined) | inactive: 81%
COc1ccc(OC)c(CCNC(=O)c2cc3cccc4c3n2CCS4)c1 | inactive: 80%
Cc1ccc(C)c(N2CCN(S(=O)(=O)c3ccc(F)c(C(=O)Nc4ccc(Cl)cc4Cl)c3)CC2)c1 | inactive: 96%
CC(O)Cn1c(Br)nc2c1c(=O)n(C)c(=O)n2C (centres undefined) | inactive: 101%
Cc1cc2n(n1)CCCN2C(=O)Nc1ccc(C)c(Cl)c1 | inactive: 79%
CN(c1ccccc1)S(=O)(=O)c1nnc(NC(=O)c2cccs2)s1 | inactive: 43%
CCN(Cc1ccccc1)C(=O)CCS(=O)(=O)c1cc(Br)cc2c1N(C(=O)C1CC1)CC2 | inactive: 73%
CCOC(=O)c1c(C)oc2ccc(N(C(=O)c3ccncc3)S(=O)(=O)c3ccc(F)cc3)cc12 | active: 28%
CCCSc1ncc(Cl)c(C(=O)Nc2sc3c(c2C(N)=O)CCCC3)n1 | active: 46%
Cc1ccccc1CNC(=O)Cc1csc2ccccc12 | inactive: 85%
COc1ccccc1NC(=O)CCNS(=O)(=O)c1ccc2c(c1)CCN2C(=O)C1CC1 | inactive: 102%
CCNc1nc(OCC(F)(F)F)nc(N(c2ccccc2)c2ccccc2)n1 | inactive: 74%
COC(=O)c1ccc(-n2nnc(-c3nsc(NC(=O)c4ccc(Cl)cc4)n3)c2C)cc1 | inactive: 65%
Cc1ccccc1CNCCSc1nnnn1C | inactive: 84%
CC1CCN(S(=O)(=O)c2ccc3c(c2)oc(=O)n3CC(=O)N2CCCCC2)CC1 | inactive: 66%
O=C(Nc1ccc(O)c(-c2nc3ccccc3o2)c1)c1ccc(-c2cccc(Cl)c2)o1 | inactive: 49%
Cc1cccc(C)c1NC(=O)c1nc(SC(C)C)ncc1Cl | inactive: 105%
Cc1cc(C)cc(N(CC(=O)Nc2ccc(C)cc2Cl)S(=O)(=O)c2c(C)[nH]c(=O)[nH]c2=O)c1 | inactive: 58%
COCCCNC(=O)C1CCN(C(=O)c2ccc(-n3ccc4ccccc43)s2)CC1 | inactive: 74%
CCOc1ccccc1NC(=O)Cn1c(=O)n(CCCCC(=O)NCCCOC)c(=O)c2ccccc21 | inactive: 149%
CCc1ccccc1N(C)C(=O)c1cc2c(Cl)nc3ccc(C)cc3c2s1 | active: -4%

Structure (SMILES) | survival
Cc1ccc2[nH]c3c(=O)n(CC(=O)NCCCN4CCN(c5ccc(F)cc5)CC4)ncc3c2c1 | inactive: 85%
N#Cc1ccccc1Cn1c(=O)n(-c2ccccc2)c(=O)c2c3c(sc21)CCC3 | inactive: 82%
O=C(NCc1cccc(F)c1)C1CCN(c2nn3cc(-c4ccc(F)cc4)nc3s2)CC1 | inactive: 87%
COc1ccc(NC(=O)c2ccco2)cc1NC(=O)COc1cc(C)ccc1C(C)C | inactive: 63%
CC(=O)N1c2ccccc2CC1C(=O)N1CCN(c2cc(Cl)ccc2C)CC1 (centres undefined) | inactive: 83%
CS(=O)(=O)N1CCN(S(C)(=O)=O)CC1 | inactive: 62%
Cc1nc(N)c(S(=O)(=O)c2ccccc2)c(Nc2ccc(Br)cc2)n1 | inactive: 87%
COc1cccc(/C=C/c2nc3ccccc3c(=O)n2-c2ccc(C)c(C)c2)c1OC | inactive: 94%
COc1ccc(Cl)cc1S(=O)(=O)N1CCC(c2ccncc2)CC1 | inactive: 126%
Cc1cccc(OCC(=O)NCc2ccc3c(c2)CCN3C(=O)c2ccc(Cl)cc2)c1 | inactive: 87%
O=C(c1cccn1-c1nnc(N2CCCC2)s1)N1CCN(c2ccc(F)cc2)CC1 | inactive: 118%
CCOc1ccc(NC(=O)c2c(NC(=O)c3ccncc3)sc3c2CCC(C(C)(C)C)C3)cc1 (centres undefined) | inactive: 113%
O=C(c1ccc(F)cc1)N1CCN(CCc2ccncc2)CC1 | inactive: 84%
Cc1ccccc1Nc1c(-c2ccc(O)cc2)nc2c(C)cccn12 | inactive: 72%
COc1cccc(CNC(=O)CSc2nnc(C)c3c(C)n(-c4ccccc4)nc23)c1 | inactive: 77%
COc1ccc(NC(=O)CCS(=O)(=O)c2cc3c4c(c2)CCN4C(=O)CC3)cc1OC | inactive: 94%
CCC(C(=O)Nc1ccc(F)cc1F)n1nc(-c2ccccc2)c2c(c1=O)CCCC2 (centres undefined) | active: 38%
O=C(NCc1ccco1)C(C(=O)c1ccccc1)n1ccccc1=O (centres undefined) | inactive: 72%
Cc1c(Cl)cccc1-n1nnc(-c2nc(-c3ccc4c(c3)OCO4)no2)c1C | inactive: 73%
COc1ccc(C)cc1NS(=O)(=O)c1cc(Br)cc2c1N(C(C)=O)C(C)C2 (centres undefined) | inactive: 56%
